{
  "source": "paper PMC4336329",
  "about": "(PLoS ONE, 2015)",
  "note": "Among all 310,000 compounds or so, about 14,000 (4.5%) showed an effect of 50% or more. Effects have a minus sign here. The list shows a part of the results.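 Also: peak tail current of the secondary pulse compared with the same well before compound.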",
  "data": [
    {"molecular_target": "human ether-à-go-go-related gene (hERG) potassium channel (human, UniProt Q12809)", "sequence (Q12809 whole entry, looked up)": "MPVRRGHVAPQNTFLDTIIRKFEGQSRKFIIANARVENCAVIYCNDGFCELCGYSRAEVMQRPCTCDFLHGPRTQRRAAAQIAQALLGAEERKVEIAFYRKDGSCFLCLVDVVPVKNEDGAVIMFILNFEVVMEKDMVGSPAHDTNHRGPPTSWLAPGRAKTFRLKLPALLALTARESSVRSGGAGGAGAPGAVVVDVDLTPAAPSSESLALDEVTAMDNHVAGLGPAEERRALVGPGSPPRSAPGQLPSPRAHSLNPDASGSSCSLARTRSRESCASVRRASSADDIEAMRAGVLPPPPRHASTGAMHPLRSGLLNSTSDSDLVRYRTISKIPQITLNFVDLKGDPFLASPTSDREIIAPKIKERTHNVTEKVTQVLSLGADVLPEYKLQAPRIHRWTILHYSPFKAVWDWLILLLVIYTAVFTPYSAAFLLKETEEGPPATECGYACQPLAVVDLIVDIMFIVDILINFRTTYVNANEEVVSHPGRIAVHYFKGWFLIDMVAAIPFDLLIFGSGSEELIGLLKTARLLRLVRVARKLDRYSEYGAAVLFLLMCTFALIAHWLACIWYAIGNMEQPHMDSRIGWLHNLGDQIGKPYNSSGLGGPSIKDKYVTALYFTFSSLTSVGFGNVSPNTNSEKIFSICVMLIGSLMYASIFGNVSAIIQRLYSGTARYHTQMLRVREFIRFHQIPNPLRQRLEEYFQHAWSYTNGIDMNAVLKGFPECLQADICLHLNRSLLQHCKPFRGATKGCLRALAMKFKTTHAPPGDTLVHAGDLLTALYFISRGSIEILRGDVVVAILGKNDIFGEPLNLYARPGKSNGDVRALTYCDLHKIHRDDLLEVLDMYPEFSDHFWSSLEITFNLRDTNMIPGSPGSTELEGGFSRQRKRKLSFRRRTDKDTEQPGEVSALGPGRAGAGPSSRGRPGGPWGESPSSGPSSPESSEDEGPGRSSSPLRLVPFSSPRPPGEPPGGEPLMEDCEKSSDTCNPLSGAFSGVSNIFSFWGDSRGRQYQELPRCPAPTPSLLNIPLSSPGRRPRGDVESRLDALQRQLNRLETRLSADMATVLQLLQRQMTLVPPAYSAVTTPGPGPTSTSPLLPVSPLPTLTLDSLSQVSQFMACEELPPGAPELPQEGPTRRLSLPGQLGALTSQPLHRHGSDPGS", "test": "primary screen, population patch clamp on CHO cells stably expressing hERG", "units": {"hERG current change (%, negative = inhibition) at 10uM": "%"}, "values": [
      {"smiles": "CCOC(=O)Nc1nc(-c2ccccc2)c(C(=O)c2ccc(Cl)cc2)s1", "hERG current change (%, negative = inhibition) at 10uM": 4.34},
      {"smiles": "CC(NC(=O)Nc1ccc(Cl)cc1)C1CCCO1", "note": "(centres unmarked)", "hERG current change (%, negative = inhibition) at 10uM": 7.05},
      {"smiles": "CCC(C)NC(=O)CN(C)S(=O)(=O)c1ccc2c(c1)c(=O)n(C)c(=O)n2C", "note": "(centres unmarked)", "hERG current change (%, negative = inhibition) at 10uM": -6.34},
      {"smiles": "Cc1c(Cl)cccc1Nc1nc(N)nc(CN2CCCCCC2)n1", "hERG current change (%, negative = inhibition) at 10uM": -74.6},
      {"smiles": "CCOCCCn1c(=N)c(S(=O)(=O)c2ccc(C)cc2)cc2c(=O)n3cc(C)ccc3nc21", "hERG current change (%, negative = inhibition) at 10uM": 11.6},
      {"smiles": "CCc1ccc(NC(=O)/C(C#N)=C/c2cc3ccc(C)cc3nc2N2CCOCC2)cc1", "hERG current change (%, negative = inhibition) at 10uM": -7.89},
      {"smiles": "Cc1ccc(S(=O)(=O)c2cc3c(=O)n4ccccc4nc3n(C3CCCC3)c2=N)cc1", "hERG current change (%, negative = inhibition) at 10uM": 6.01},
      {"smiles": "CCOC(=O)C(=CNc1ccccc1N1CCOCC1)C(=O)OCC", "hERG current change (%, negative = inhibition) at 10uM": -13},
      {"smiles": "N#CC1=C(SCC(=O)NCc2ccccc2)NC(=O)CC1c1ccco1", "note": "(centres unmarked)", "hERG current change (%, negative = inhibition) at 10uM": 9.86},
      {"smiles": "CC1(C)CC(=O)C(=Cc2cn(-c3ccccc3)nc2-c2ccc(Cl)cc2)C(=O)C1", "hERG current change (%, negative = inhibition) at 10uM": 14.6},
      {"smiles": "CCOC(=O)C(NC(=O)CC(C)C)(Nc1sc2c(c1C(N)=O)CCCC2)C(F)(F)F", "note": "(centres unmarked)", "hERG current change (%, negative = inhibition) at 10uM": 14.4},
      {"smiles": "CCN(CC)S(=O)(=O)c1ccc2c(c1)nc(CCC(=O)OCC(=O)N1CCc3ccccc31)n2C", "hERG current change (%, negative = inhibition) at 10uM": -16.4},
      {"smiles": "CCn1c(CC(=O)Nc2ccccc2)nnc1SCC(=O)N1CCOCC1", "hERG current change (%, negative = inhibition) at 10uM": 12.6},
      {"smiles": "Cc1cc(C)c(C)c(S(=O)(=O)N(C)C2CCN(C)CC2)c1C.Cl", "hERG current change (%, negative = inhibition) at 10uM": -16.5},
      {"smiles": "CCOc1ccc(NC(=O)COc2coc(CN3CCc4ccccc4C3)cc2=O)cc1", "hERG current change (%, negative = inhibition) at 10uM": 4.27},
      {"smiles": "CCN(CC)S(=O)(=O)c1ccc2oc(C(=O)NC3CCCc4ccccc43)c(C)c2c1", "note": "(centres unmarked)", "hERG current change (%, negative = inhibition) at 10uM": 2.13},
      {"smiles": "COc1ccc(C(=O)N2CCOC2CNC(=O)C(=O)NCc2ccc3c(c2)OCO3)cc1", "note": "(centres unmarked)", "hERG current change (%, negative = inhibition) at 10uM": 1.53},
      {"smiles": "O=C(NCCSC1CCCCC1)c1ccccc1", "hERG current change (%, negative = inhibition) at 10uM": 3.36},
      {"smiles": "COc1ccccc1N1CCN(C(=O)CSc2nc(C)c(C)c(=O)[nH]2)CC1", "hERG current change (%, negative = inhibition) at 10uM": 14.8},
      {"smiles": "O=C(Nc1ncc2c(n1)-c1ccccc1OC2)c1ccccc1Cl", "hERG current change (%, negative = inhibition) at 10uM": -8.91},
      {"smiles": "Cc1ccc(NC(=O)c2cc3nc(C)cc(C)n3n2)cc1", "hERG current change (%, negative = inhibition) at 10uM": -4.38},
      {"smiles": "COc1ccc(S(=O)(=O)N2CCCC2CNC(=O)C(=O)Nc2ccc(F)cc2)cc1", "note": "(centres unmarked)", "hERG current change (%, negative = inhibition) at 10uM": -46.3},
      {"smiles": "O=C(OCC(=O)N1CCCC1=O)c1ccc(Cl)cc1[N+](=O)[O-]", "hERG current change (%, negative = inhibition) at 10uM": -8.32}
    ]}
  ]
}
